Results as given in PubChem BioAssay AID1345082 (National Center for Advancing Translational Sciences (NCATS), 2018).
The campaign covered roughly 94,000 compounds. About 4,000 (4.3%) were called active. This list was built around the results that the source calls inconclusive (neither active nor inactive); the mix of calls is not that of the screen. Calls come from the whole dose curve; as a rule, active = well fitted inhibition curve with a large enough effect; inconclusive = small, poorly fitted or top-dose-only effect; inactive = no such curve, though single readings can be large or run the other way. A potency beside an inconclusive call is a rough fit, not a confirmed value.

Test: Cytotoxic Profiling in NIH 3T3 Cell Line of Diverse Libraries Using Quantitative High-Throughput Screening; note: nearly all actives have a fitted effect of over 55% in size
Settings: NIH 3T3 viability, CellTiter-Glo ATP luminescence, 48-72 h; activity change, negative = cytotoxicity: at 96.7 µM (top of the series) unless noted; series mostly up to 96.7 µM
Summary of the method: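 Cytotoxicity is measured as loss of cellular ATP: NIH 3T3 cells (400/well) are exposed to compound for 48 or 72 hr at 37 °C, then CellTiter-Glo luminescence is imaged after 10 min at room temperature.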
% is set by controls: 0 for no effect and ±100 for the full control effect; potency is the fitted concentration of half-maximal effect; tags give direction and shape of the fitted curve.

Structure (SMILES)	Potency	activity change, negative = cytotoxicity	outcome
O=C(Nc1ccccc1F)N1CCC(N2C(=O)C3(CCCCC3)C2c2ccccc2)CC1 (configuration not stated)	inconclusive: 44.7 µM [inhibitor, partial curve, poor fit]		
Cc1cccc(CC(=O)N2CCC(c3n[nH]c(=O)n3-c3ccccc3)CC2)c1	inconclusive: 56.2 µM [inhibitor, partial curve, poor fit]		
CCc1noc(CN(CC)C(=O)c2cc(-c3ccccc3)nn2C)n1	inconclusive: 35.5 µM [inhibitor, partial curve]		
CN1c2cc(C(=O)Nc3ccc(Br)cc3)ccc2C(=O)N2CCCCC21 (configuration not stated)	inconclusive: 56.2 µM [inhibitor, partial curve, poor fit]		
O=C(Cc1ccccc1)NC1CCCN(c2ccc3nnc(C4CC4)n3n2)C1 (configuration not stated)		inactive: 1%	
CN1Cc2ncnc(NCCc3ccccc3)c2CN(C2CCC2)C1=O	inconclusive: 56.2 µM [inhibitor, partial curve, poor fit]		
CCN(Cc1ccccc1)c1ncncc1-c1nc(-c2ccccc2)no1	inconclusive: 44.7 µM [inhibitor, partial curve, poor fit]		
COc1ccc(CN2C=C(C(=O)OCc3noc(-c4ccc(OC)cc4)n3)C(C)=NS2(=O)=O)cc1	inconclusive: 7.08 µM [inhibitor, full curve, poor fit]		
COc1cccc(C(=O)Nc2ccc3c(c2)CN(Cc2ccc(OC)cc2OC)C(=O)CO3)c1		inactive: -28.5%	
O=C(NCc1ccc(F)cc1Cl)C1CCN(C(=O)c2ncn3c2COC(c2ccccc2)C3)CC1 (configuration not stated)			inactive
COc1cc(Cl)ccc1C(=O)NC1CCN(c2cc(-c3ccccc3)[nH]n2)CC1	inconclusive: 28.2 µM [inhibitor, partial curve]		
COC1CN(c2cccc(F)c2)C12CCN(C(=O)c1cccc(C)c1)CC2 (configuration not stated)	inconclusive: 70.8 µM [inhibitor, partial curve, poor fit]		
Cc1c(F)cccc1NC(=O)N1CCCC(c2noc(COc3ccccc3)n2)C1 (configuration not stated)	inconclusive: 44.7 µM [inhibitor, partial curve, poor fit]		
CN1CCCCCC(O)c2cc(C(=O)N3CCN(c4ccc(F)cc4)CC3)ccc21 (configuration not stated)	inconclusive: 44.7 µM [inhibitor, partial curve, poor fit]		
CN1Cc2ccc(C(=O)Nc3ccc4cn[nH]c4c3)cc2OCC1=O	inconclusive: 25.1 µM [inhibitor, full curve, poor fit]		
Cc1noc2c(NC3CCC(O)CC3)cc(-c3ccc(Cl)cc3)nc12 (configuration not stated)	active: 22.4 µM		
O=C(NCc1ccc(Cl)cc1)c1c[nH]c2cccnc12	active: 15.8 µM		
COc1ccc(C2Cn3cnc(C(=O)N4CCC(C(=O)NCCC5=CCCCC5)CC4)c3CO2)cc1 (configuration not stated)			inactive
O=C1Nc2ccc(-c3ccccc3F)cc2C(=O)N2CCN(C(=O)NC3CCCCC3)C[C@H]12	inconclusive: 44.7 µM [inhibitor, partial curve, poor fit]		
CNC(=O)CCn1ncc2cc(OCc3ccccc3-c3ccc(OC)cc3C)ccc21	inconclusive: 79.4 µM [inhibitor, partial curve, poor fit]		
C[S+](=O)([O-])N1CCC(c2nnc3n2C(C(=O)NCc2ccc(Cl)cc2)CC3)CC1 (configuration not stated)		inactive: 0.445%	

Structure (SMILES)	Potency	activity change, negative = cytotoxicity	outcome
COc1cccc(C(=O)NC2CCN(c3nccc(Nc4ccccc4Cl)n3)CC2)c1	active: 35.5 µM		
CC(C)N(Cc1cccc(N2CCN(S(=O)(=O)c3c(Cl)cccc3Cl)CC2)c1F)S(C)(=O)=O	inconclusive: 17.8 µM [inhibitor, full curve]		
Cc1noc(C)c1-c1cnc(Nc2ccncc2)c2c1CCO2	inconclusive: 10 µM [inhibitor, full curve]		
CC(C)(C)c1ccc(-c2cc(C[C@H]3CNCC[C@H]3CC(=O)NCc3ccc(F)cc3)no2)cc1	active: 25.1 µM		
Clc1ccc(-c2cnc([C@@H]3COCCN3CC3CC3)[nH]2)s1	inconclusive: 79.4 µM [inhibitor, partial curve, poor fit]		
CCC(=O)N1Cc2ccccc2CC2(CCN(Cc3ccc(NC(C)=O)cc3)C2)C1 (configuration not stated)		inactive: 2.63%	
Cn1cccc1-c1noc(C2CCN(C(=O)COc3ccc(F)cc3)CC2)n1	inconclusive: 31.6 µM [inhibitor, full curve, poor fit]		
O=C1NCc2ccccc2CC12CCCN(Cc1c[nH]c3ccccc13)C2 (configuration not stated)	inconclusive: 70.8 µM [inhibitor, partial curve, poor fit]		
CN1CCC2(C1)CN(Cc1ccccc1)c1ccc(C(=O)NC3CCC3)cc12 (configuration not stated)	active: 79.4 µM		
COc1ccc(C(=O)N2CCCC3(COc4ccccc4C(=O)N3)C2)cc1 (configuration not stated)	inconclusive: 56.2 µM [inhibitor, partial curve, poor fit]		
Cn1cc(CN2CCOC[C@H](Oc3ccc(S(C)(=O)=O)cc3)C2)c2ccccc21	active: 28.2 µM		
COc1cccc(CC(=O)N2CCC3(CC2)C(OC)C(=O)N3CC2CC2)c1 (configuration not stated)		inactive: -5.88%	
Cn1ccc2c(C(=O)NCCc3cnc[nH]3)nc(-c3cccc(C(F)(F)F)c3)cc21	active: 35.5 µM		
CC(=O)N1CCN(C(=O)c2ccc3c(c2)NC(C)(CCCCc2ccccc2)CO3)CC1 (configuration not stated)	inconclusive: 89.1 µM [inhibitor, partial curve]		
O=C(c1nccc2ccccc12)N1CCc2c(nc(-c3ccccc3)[nH]c2=O)C1	inconclusive: 8.91 µM [inhibitor, full curve, poor fit]		
Cc1cccc(OC[C@H]2C[C@@H](NCc3ccc(C)o3)[C@H](O)[C@@H]2O)n1		inactive: 1.21% [at 174 µM]	
COc1ccc(-c2nc3c(C)cccc3cc2CN2CCC[C@H]2CO)cc1OC	inconclusive: 89.1 µM [inhibitor, partial curve, poor fit]		
CN1CC(=O)N(c2ccccc2F)Cc2c(NCCc3ccc(Cl)cc3)ncnc21	active: 39.8 µM		
O=C1N[C@@H]2CCN(C(=O)c3ccc(-c4ccccc4)cc3)[C@@H]2C(=O)N1Cc1ccccc1	active: 112 µM		
CC(C)CCN1CCOc2cc(C(=O)N(C)c3cccnc3)ccc2C1	inconclusive: 50.1 µM [inhibitor, partial curve, poor fit]		
O=C(NC1CCN(c2cc(-c3cccs3)[nH]n2)C1)c1cccc2[nH]ccc12 (configuration not stated)	inconclusive: 44.7 µM [inhibitor, partial curve, poor fit]		

Structure (SMILES)	Potency	activity change, negative = cytotoxicity	outcome
COc1cc(CN2CCC(C)(NC(C)=O)CC2)cc(Nc2ccccc2)c1	inconclusive: 89.1 µM [inhibitor, partial curve]		
Cc1ccc(OCc2nc(C3CN(C(=O)CCCc4ccccc4)C3)no2)cc1	inconclusive: 50.1 µM [inhibitor, partial curve, poor fit]		
COc1cccc(CC(=O)N2CCC(Cn3c(C)cnc3C3CCC3)CC2)c1		inactive: -14.2%	
c1ccc(CO[C@@H]2CO[C@H]3[C@@H]2OC[C@@H]3n2nnnc2SCc2ccco2)cc1	active: 89.1 µM		
CC(C)CCC(=O)N1CC(c2nnc(-c3ccncc3)o2)C2(CCOCC2)C1 (configuration not stated)		inactive: -1.68%	
O=C(NC1CCCC1)C1CCCN(Cc2cccc(-c3cccs3)c2)C1 (configuration not stated)	inconclusive: 44.7 µM [inhibitor, partial curve, poor fit]		
COc1cncc(N2C[C@H]3[C@H](C2)[S+](=O)([O-])C(C)(C)C(=O)N3Cc2ccccc2)c1	inconclusive: 89.1 µM [inhibitor, partial curve, poor fit]		
OCC1CN(Cc2cc(F)cc(Br)c2)CC12CCNCC2 (configuration not stated)	inconclusive: 44.7 µM [inhibitor, partial curve, poor fit]		
COc1cccc(-c2nc(-c3c(C)noc3C)cc3c2cc(C)n3CCN(C)C)c1	active: 10 µM		
Cc1ccc(C(=O)N2CC(C(=O)NC3CCCCC3)C3(CCOCC3)C2)cc1F (configuration not stated)			inactive
CN1C[C@@H](NC(=O)c2ccc(-c3ccccc3)cc2)C[C@H]1c1nc(-c2ccc(Cl)cc2)no1	inconclusive: 44.7 µM [inhibitor, full curve, poor fit]		
CC(C)COc1cc(=O)n2c(c1C(=O)N1CCN(c3ccccn3)CC1)CCCCC2	inconclusive: 70.8 µM [inhibitor, single point]		
COc1cccc([S+](=O)([O-])N2CCCC3(C2)C(=NC2CCCC2)NC(=O)N3c2cc(F)cc(F)c2)c1 (configuration not stated)	inconclusive: 50.1 µM [inhibitor, partial curve, poor fit]		
CCCn1ncc(-c2nc(-c3ccncc3)no2)c1C	inconclusive: 56.2 µM [inhibitor, partial curve, poor fit]		
COCCn1c(CO)nnc1C1CC(NC(=O)c2ccoc2C)C1 (configuration not stated)		inactive: -13.2%	
COc1ccccc1CCc1nc(C2CC(=O)N(c3ccc(F)c(Cl)c3)C2)no1 (configuration not stated)	inconclusive: 50.1 µM [inhibitor, partial curve, poor fit]		
O=C(Nc1ccc(Cl)cc1Cl)c1cn2c(n1)CN(C(=O)c1ccccc1)CC2	inconclusive: 50.1 µM [inhibitor, single point]		
COc1cc(C(=O)NCCn2cccc2-c2nc(-c3ccccc3)no2)cc(OC)c1OC	inconclusive: 50.1 µM [inhibitor, partial curve, poor fit]		
CCN1c2cc(C(=O)Nc3ccccc3)ccc2C(=O)N2CCCC21 (configuration not stated)	inconclusive: 44.7 µM [inhibitor, partial curve, poor fit]		
Cc1cc(=O)n(CC(=O)Nc2ccc(F)cc2)c(N2CCN(c3ccccc3)CC2)n1	inconclusive: 56.2 µM [inhibitor, partial curve, poor fit]		
